Whole data set: some 110,000 compounds, median “z-score” near -0.1, cut for the highest 2% near 2. This is one part of the list.

The source of these data is PubChem BioAssay AID488969 (Vanderbilt High Throughput Screening Facility, 2010).

For this test, the target named is Metabotropic glutamate receptor 8 (Rattus norvegicus) (UniProt P70579). As to the kind of experiment: mGluR8 Gi/Go-coupled signaling modulation – cell-based, rat, thallium flux, HTS, primary screen (AID 488969). The settings on record: HEK293 rat mGluR8, GIRK (G protein-gated inwardly rectifying potassium channel) thallium flux, FluoZin2; at 10 µM; stronger effect = higher value; submaximal glutamate (EC20) added with thallium.
Sequence of UniProt P70579 (P70579 whole entry, looked up): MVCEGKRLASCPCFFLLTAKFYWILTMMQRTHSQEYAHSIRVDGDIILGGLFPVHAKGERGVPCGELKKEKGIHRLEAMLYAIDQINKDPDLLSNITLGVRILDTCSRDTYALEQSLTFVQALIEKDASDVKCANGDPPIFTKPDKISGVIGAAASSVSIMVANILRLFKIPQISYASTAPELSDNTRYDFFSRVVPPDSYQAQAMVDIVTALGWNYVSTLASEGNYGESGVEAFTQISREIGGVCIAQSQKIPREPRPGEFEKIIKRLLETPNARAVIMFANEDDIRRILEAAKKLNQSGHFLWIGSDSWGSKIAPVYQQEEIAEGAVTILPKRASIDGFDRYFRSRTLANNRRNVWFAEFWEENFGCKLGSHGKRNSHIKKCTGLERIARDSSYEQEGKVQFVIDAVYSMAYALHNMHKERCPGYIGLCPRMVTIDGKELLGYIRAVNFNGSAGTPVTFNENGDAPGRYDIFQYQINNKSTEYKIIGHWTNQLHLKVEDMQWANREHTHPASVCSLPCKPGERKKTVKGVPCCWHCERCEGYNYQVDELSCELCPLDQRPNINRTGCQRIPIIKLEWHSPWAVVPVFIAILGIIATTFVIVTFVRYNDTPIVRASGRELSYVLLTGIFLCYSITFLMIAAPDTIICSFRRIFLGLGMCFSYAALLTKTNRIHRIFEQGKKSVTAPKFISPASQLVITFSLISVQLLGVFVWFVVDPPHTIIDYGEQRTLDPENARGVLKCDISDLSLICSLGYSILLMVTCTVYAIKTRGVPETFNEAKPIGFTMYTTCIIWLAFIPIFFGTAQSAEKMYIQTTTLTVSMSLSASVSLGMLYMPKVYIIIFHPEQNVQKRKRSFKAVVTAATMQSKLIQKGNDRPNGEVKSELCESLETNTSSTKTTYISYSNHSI
For the molecule `COc1cc(/C=C(\C#N)C(=O)NCC2CCCO2)ccc1O` (centres undefined), the z-score stood at 0.279.

Take `CN(C)S(=O)(=O)c1ccc(NC(=O)CN2CCN(C(c3ccccc3)c3ccccc3)CC2)cc1`: the z-score is -0.193.

`CCOc1ccc(C(c2nnnn2Cc2ccccc2)N2CCN(C(=O)c3ccco3)CC2)cc1` (centres undefined): the z-score was -0.338.

For the molecule `Cc1c(C(N)=O)c(-c2ccccc2)nn1-c1ccccc1`, the z-score was -0.0667.

As for `CCOC(=O)c1c(-c2ccc(OC)cc2)nc2nonc2c1N`, the z-score came out at 0.0715.

Consider `Cc1cc2cc(CN(Cc3cccs3)C(=S)NCc3ccco3)c(=O)[nH]c2cc1C`, for which the z-score worked out at 0.105.

Consider `COc1ccc(CCNC(=O)CCCCCN2C(=O)c3ccccc3C2=O)cc1OC`, for which the z-score was 0.301.

On to `O=C(Oc1oc(-c2ccco2)nc1C=Nc1ccc(Cl)cc1)c1ccco1`, for which the z-score is -0.0203.

On to `CC(C)(C)N(NC(=O)Nc1ccc(F)cc1)C(=O)c1ccccc1`, for which the z-score was 0.955.

With `O=C(/C(=C/c1ccc(Cl)cc1)c1nc2ccccc2[nH]1)c1ccccc1`, the z-score was -0.287.

`Cc1ccc(OCC(=O)NNC(=O)C(=O)NC(C)(C)C)cc1`: the z-score came out at 2.61.

`Cn1c(=O)oc2cc(S(=O)(=O)N3CCN(c4ccccc4)CC3)ccc21` came in with a z-score of 0.317.

Regarding `Cc1ncsc1C(=O)N1N=C2/C(=C/c3ccc(N4CCOCC4)cc3)CCCC2C1c1ccc(N2CCOCC2)cc1` (centres undefined), the z-score was -0.0668.

Molecule `O=C(Nc1cccc(Cl)c1)C1C2CCC3C(CCC21)C3(Cl)Cl` (centres undefined) came in with a z-score of 0.00472.

In the case of `Cc1[nH]c2ccccc2c1C(=O)/C=C\c1ccccc1Cl`, the z-score is -0.115.

On to `CNC(=O)c1c(N)sc2c1CCCCC2`, for which the z-score was determined as 0.209.

As for `O=C1COc2ccc(C(=O)c3ccccc3C(=O)NCc3ccccc3)cc2N1`, the z-score was -0.231.

For the molecule `COc1ccc(/C=N/n2cncn2)cc1CSc1ccccn1`, the z-score was -0.583.

With `O=C(NC1CCCCC1)C1CN(S(=O)(=O)c2ccccc2)CCN1S(=O)(=O)c1ccccc1` (centres undefined), the z-score was -0.0054.

For the molecule `COc1ccc(OC)c(Nc2ncnc3ccccc23)c1`, the z-score was -0.375.

With `COc1ccc(-c2cc(C(=O)N/N=C/c3ccc(OC)c(COCC(F)(F)C(F)F)c3)c3ccccc3n2)c(OC)c1`, the z-score is -0.0594.

In the case of `NC(=O)N/N=C\c1cc(Br)ccc1O`, the z-score is -0.265.

Turning to `COc1ccc(NC(=O)O/N=C2/CCCc3ccc(OC)cc32)cc1`, the z-score is -0.131.

As to `CCOC(=O)C1=NN(c2ccccc2C)C2=NC(C)=C(C(=O)OC)C(c3cccs3)N12` (centres undefined), the z-score is -0.355.

For the molecule `COc1ccc(C(=O)CSC2=C(C#N)C3(CCCCC3)C(C#N)=C(N)N2)cc1`, the z-score was -0.63.

On to `CC(=O)OCc1c(C(F)(F)F)nn(C)c1SCc1ccc(Cl)cc1`, for which the z-score is -1.09.

`c1ccc(C2=Nn3c(nnc3-c3cccnc3)SC2)cc1`: the z-score was -0.24.

`CC(=O)c1nc(N2C(=O)C3CC=C(C)CC3C2=O)sc1C` (centres undefined): the z-score was -0.425.

`c1ccc2c(c1)Cc1cc(CN3CCOCC3)ccc1-2` displayed a z-score of 0.618.
